{"source": "PubChem BioAssay AID1460", "about": "(National Center for Advancing Translational Sciences (NCATS), 2008)", "note": "The whole screen tested about 270,000 compounds, of which about 5,800 (2.1%) were called active. The shares of active, inactive and inconclusive entries below differ from those in the screen. Calls come from the whole dose curve; as a rule, active = well fitted inhibition curve with a large enough effect; inconclusive = small, poorly fitted or top-dose-only effect; inactive = flat fitted curve, though single readings scatter. Potencies of inconclusive entries are doubtful fits and often do not repeat. % is set by controls: 0 for no effect and ±100 for the full control effect; potency is the fitted concentration of half-maximal effect; tags give direction and shape of the fitted curve.", "data": [{"target": "Microtubule-associated protein tau (Homo sapiens) (UniProt P10636)", "sequence (P10636 whole entry, looked up, the tested form may be a part)": "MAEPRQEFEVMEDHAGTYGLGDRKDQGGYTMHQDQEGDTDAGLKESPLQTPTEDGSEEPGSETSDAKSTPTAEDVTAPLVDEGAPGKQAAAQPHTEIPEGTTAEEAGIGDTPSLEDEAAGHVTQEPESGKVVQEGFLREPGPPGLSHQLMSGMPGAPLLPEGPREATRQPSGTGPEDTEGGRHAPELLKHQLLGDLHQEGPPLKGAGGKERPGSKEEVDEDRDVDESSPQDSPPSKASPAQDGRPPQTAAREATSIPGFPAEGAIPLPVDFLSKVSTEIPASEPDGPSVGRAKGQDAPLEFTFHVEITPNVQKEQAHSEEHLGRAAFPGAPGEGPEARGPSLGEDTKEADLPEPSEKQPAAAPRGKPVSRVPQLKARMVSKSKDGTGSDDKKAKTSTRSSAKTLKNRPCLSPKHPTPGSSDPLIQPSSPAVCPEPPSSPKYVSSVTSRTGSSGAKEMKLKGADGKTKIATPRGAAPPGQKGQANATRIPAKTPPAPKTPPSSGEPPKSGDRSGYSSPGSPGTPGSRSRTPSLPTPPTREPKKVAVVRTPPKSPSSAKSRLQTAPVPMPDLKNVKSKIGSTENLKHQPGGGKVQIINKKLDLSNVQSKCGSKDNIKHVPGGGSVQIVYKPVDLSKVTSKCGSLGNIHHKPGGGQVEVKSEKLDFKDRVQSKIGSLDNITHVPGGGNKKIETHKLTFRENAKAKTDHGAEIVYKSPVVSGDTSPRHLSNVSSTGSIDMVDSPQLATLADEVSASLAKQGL", "test": "qHTS for Inhibitors of Tau Fibril Formation, Thioflavin T Binding; note: nearly all actives have a fitted effect of over 55% in size", "conditions": "recombinant tau K18 P301L (four-repeat tau fragment), heparin-induced fibrillization, ThT fluorescence; series mostly up to 57.4 µM; activity, negative = inhibition: at the top concentration", "in_short": "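Tau K18 P301L fragment (15 uM unlabeled plus 0.24 uM Alexa 594-labeled) in 100 mM sodium acetate pH 7 with compound, fibrillization induced by 20 uM heparin for 6 hr at 37 C. Thioflavin T (30 uM) added, fluorescence read after 1 hr (ex 450, em 510 nm).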", "values": [{"compound": "COc1ccc(OC)c(NC(=O)c2c(NCc3ccc(C)o3)sc3c2CCCCC3)c1", "Potency": "active: 25.1 µM"}, {"compound": "Cc1cc(C)cc(C(=O)Oc2coc(CSc3nnc(NC(=O)C4CC4)s3)cc2=O)c1", "Potency": "inconclusive: 11.2 µM [inhibitor, partial curve]"}, {"compound": "Cc1cccc(OCCn2c(-c3ccco3)nc3ccccc32)c1", "Potency": "inconclusive: 15.8 µM [inhibitor, partial curve]"}, {"compound": "Cc1ccc(N=Nc2c(N)nn3c(N)c(C#N)c(C)nc23)cc1", "Potency": "active: 1.41 µM"}, {"compound": "O=C(Cc1ccccc1)N1CCN(c2ncccn2)CC1", "activity, negative = inhibition": "inactive: -6.22%"}, {"compound": "CCCN1C(=O)/C(=C/c2ccc(N3CCOCC3)cc2)NC1=S", "Potency": "inconclusive: 3.55 µM [inhibitor, full curve]"}, {"compound": "O=c1oc(-c2ccco2)nc2c1cnn2-c1ccccc1", "Potency": "inconclusive: 28.2 µM [inhibitor, partial curve]"}, {"compound": "CSc1ccc(/C=C/c2ccc3cccc(O)c3n2)cc1", "Potency": "inconclusive: 2.82 µM [inhibitor, full curve]"}, {"compound": "CN(Cc1ccccc1)C(=O)COC(=O)/C=C/c1ccco1", "activity, negative = inhibition": "inactive: -14.4%"}, {"compound": "COc1ccc2c(c1)NC(c1cc(Cl)cc(Cl)c1O)c1cccn1-2", "note": "(configuration not stated)", "Potency": "inconclusive: 17.8 µM [inhibitor, partial curve]"}, {"compound": "COc1ccc(C2NN=C(c3ccc(C)cc3)S2)cc1OC", "note": "(configuration not stated)", "Potency": "inconclusive: 0.708 µM [inhibitor, full curve, poor fit]"}, {"compound": "O=C(N/N=C1\\CCCc2c1[nH]c1ccc(Cl)cc21)c1ccncc1", "Potency": "inconclusive: 0.708 µM [inhibitor, full curve, poor fit]"}, {"compound": "CSc1ccc(/C=N/Nc2cccc(C(=O)O)c2)cc1", "Potency": "inconclusive: 12.6 µM [inhibitor, partial curve]"}, {"compound": "CCOc1ccc(NC(=S)N(C)C)cc1", "activity, negative = inhibition": "inactive: -20.6%"}, {"compound": "CCNC(=S)NNc1ccccc1", "Potency": "inconclusive: 14.1 µM [inhibitor, partial curve]"}, {"compound": "COC(=O)c1cnc(NNC(=O)c2ccc([N+](=O)[O-])cc2)nc1C(F)(F)F", "Potency": "inconclusive: 20 µM [inhibitor, partial curve, poor fit]"}, {"compound": "CCCCCCCc1cc2ccccc2c(=O)o1", "activity, negative = inhibition": "inactive: -2.07%"}, {"compound": "O=[N+]([O-])c1ccc(CN2CCOCCOCCN(Cc3ccc([N+](=O)[O-])cc3)CCOCC2)cc1", "Potency": "inconclusive: 31.6 µM [inhibitor, single point]"}, {"compound": "Cc1cccc2c1-c1sc(C(=O)N3CCN(c4ccc(F)cc4)CC3)cc1CO2", "Potency": "inconclusive: 1.58 µM [inhibitor, full curve]"}, {"compound": "Cc1ccccc1CNC(=O)CCCn1c(=O)c2cccn2c2ccccc21", "activity, negative = inhibition": "inactive: 1.6%"}, {"compound": "O=C(NCCc1ccccc1)C(=O)NCC(c1cccnc1)N1CCN(c2ccccc2)CC1", "note": "(configuration not stated)", "activity, negative = inhibition": "inactive: 3.83%"}, {"compound": "CC[C@@]1(O)CC2CN(CCc3c([nH]c4ccccc34)[C@](C(=O)OC)(c3cc4c(cc3OC)N(C)C3[C@@](O)(C(=O)OC)C(OC(C)=O)[C@]5(CC)C=CCN6CC[C@@]43C65)C2)C1", "note": "(some centres not stated)", "Potency": "inconclusive: 15.8 µM [inhibitor, partial curve]"}, {"compound": "O=C(Nc1ccc(S(=O)(=O)N2CCCC2)cc1)C1CCCN1C(=O)c1cccs1", "note": "(configuration not stated)", "Potency": "inconclusive: 22.4 µM [inhibitor, single point]"}, {"compound": "COc1ccc(C)cc1NC(=O)c1cc2c(CO)cnc(C)c2oc1=N", "Potency": "inconclusive: 3.55 µM [inhibitor, full curve]"}, {"compound": "CC(CNC(=O)c1ccc(CSc2nc3ccncc3n2Cc2cccc(F)c2)cc1)c1ccccc1", "note": "(configuration not stated)", "activity, negative = inhibition": "inactive: -0.497%"}, {"compound": "CCOc1cccc(CC(=O)N2CCc3c([nH]c4ccccc34)C2c2ccc(C)cc2)c1OCC", "note": "(configuration not stated)", "activity, negative = inhibition": "inactive: -4.2%"}, {"compound": "O=C(CSc1nnc2scc(-c3ccc(Cl)cc3)n12)Nc1ccccc1F", "Potency": "inconclusive: 28.2 µM [inhibitor, single point]"}, {"compound": "Cc1sc(NC(=O)c2ccc(=O)n(C)n2)nc1-c1ccccc1", "Potency": "inconclusive: 14.1 µM [inhibitor, partial curve]"}, {"compound": "CCC(C)NC(C(=O)Nc1ccc(Cl)c([N+](=O)[O-])c1)c1ccccc1", "note": "(configuration not stated)", "activity, negative = inhibition": "inactive: -11.3%"}, {"compound": "COc1cccc(/C=N/NC(=O)c2ccc3nc[nH]c3c2)c1O", "Potency": "inconclusive: 7.94 µM [inhibitor, partial curve]"}, {"compound": "CC1=NNC(=O)C1C(c1cccc(O)c1)C(C#N)C#N", "note": "(configuration not stated)", "activity, negative = inhibition": "inactive: -12.4%"}, {"compound": "Cc1nc2ccn(Cc3cccnc3)c(=O)c2cc1C(=O)NCc1ccc(Cl)cc1", "activity, negative = inhibition": "inactive: -6.7%"}, {"compound": "N/C(=N\\OC(=O)COc1ccccc1)c1cccnc1", "Potency": "inconclusive: 31.6 µM [inhibitor, single point]"}, {"compound": "CCNC(=S)N1N=C2c3ccccc3CCC2C1c1ccc(F)cc1", "note": "(configuration not stated)", "Potency": "inconclusive: 25.1 µM [inhibitor, single point]"}, {"compound": "O=C(COCc1nc2ccccc2c(=O)[nH]1)NCC1CCCCC1", "activity, negative = inhibition": "inactive: -4.39%"}, {"compound": "COC(=O)CSc1nnc(SCc2ccc(Cl)cc2)s1", "activity, negative = inhibition": "inactive: -9.88%"}, {"compound": "O=C(C1CCCN(S(=O)(=O)c2ccc(Br)s2)C1)N1CCCCCC1", "note": "(configuration not stated)", "activity, negative = inhibition": "inactive: -4.77%"}, {"compound": "Cc1cc(N2CCCCC2)nc(SCc2ccc(C#N)cc2)n1", "activity, negative = inhibition": "inactive: -2.11%"}, {"compound": "Cc1cccn2c(=O)c3cc(C#N)c(=NC(=O)c4ccncc4)n(CCCOC(C)C)c3nc12", "Potency": "inconclusive: 28.2 µM [activator, partial curve]"}, {"compound": "COc1cccc2cc(C(C)N(CCCN3CCOCC3)C(=O)Nc3ccccc3)oc12", "note": "(configuration not stated)", "activity, negative = inhibition": "inactive: -11.4%"}, {"compound": "CCCCCNC(=O)c1ccc2c(=O)[nH]c3c(C(=O)NCC4CCCO4)sc(=S)n3c2c1", "note": "(configuration not stated)", "Potency": "active: 14.1 µM"}, {"compound": "Cc1cc(N2CCN(C)CC2)nc2ccc(NC(=O)Nc3ccc(Cl)cc3)cc12", "Potency": "active: 12.6 µM"}, {"compound": "CCOC(=O)/C=C(\\C)Sc1cc(=O)oc2ccccc12", "Potency": "inconclusive: 14.1 µM [inhibitor, partial curve]"}, {"compound": "O=C(CCS(=O)(=O)c1cccc2nonc12)N1CCN(c2ccc(F)cc2)CC1", "Potency": "inconclusive: 28.2 µM [inhibitor, partial curve]"}, {"compound": "CCN1C(=O)c2cccc3c(NC(=O)c4ccccc4)ccc1c23", "Potency": "inconclusive: 17.8 µM [inhibitor, partial curve]"}, {"compound": "O=C(NC(=S)Nc1ccccc1N1CCCC1)c1ccc(F)cc1", "activity, negative = inhibition": "inactive: -6.44%"}, {"compound": "COc1ccc(-n2c3nc4ccccc4nc3c3c(=N)oc(C)nc32)cc1", "Potency": "inconclusive: 17.8 µM [inhibitor, partial curve]"}]}]}
